# The full ranking holds about 33,000 sequences; the median of “E-score (-0.5 to 0.5)” is about -0.01, and the highest 2% start at about 0.26. The list shows a part of the results.
# Biological target: Ste12 (UniProt P13574)
# Assay: PBM E-score (8-mer binding enrichment) (E-score (-0.5 to 0.5)); higher = stronger / more preferred TF binding; most listed sequences are background and not binding sites
# Conditions: protein concentration: 200 nM; construct: GST-DNA-binding domain
# Method in brief: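 Bound GST-tagged yeast transcription factors, applied at about 100-200 nM to double-stranded universal all-10-mer Agilent arrays, were detected with fluorescent anti-GST. Scans were normalised with masliner. A modified Wilcoxon-Mann-Whitney statistic, the E-score, was assigned to each ungapped eight-base word pooled with its reverse complement by the Universal PBM Analysis Suite.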
row,Sequence,PBM E-score
1,CCAAAAAG,0.158
2,ATAATCGC,0.08
3,GTTGGGTA,-0.035
4,GGAGGCTA,0.035
5,CCCAAGGC,-0.0771
6,ACCGGTTA,-0.0192
7,ACATTAAG,0.084
8,CCCGCCGA,-0.0475
9,GACCAGCA,0.0512
10,AACACCGT,0.0855
11,CTCTCACC,-0.0199
12,ACAGCCCT,-0.18
13,CGACATCG,-0.126
14,GTTATCTA,0.0186
15,TATTGACA,0.0458
16,ACGGATAT,0.0921
17,CCAGGTCC,-0.217
18,TCCTTGAA,0.0246
19,AGGGTTCG,-0.247
20,GATATTCA,0.0641
21,CTGCGGAA,-0.0498
22,AGCGCGAA,0.0799
23,AATTAGCT,0.191
24,GCCCCCCC,-0.0282
25,GGATGTTA,0.111

row,Sequence,PBM E-score
1,CTCGGAAA,0.188
2,CTTGCAGA,-0.0853
3,ACAACACT,0.155
4,CCAAATAC,0.0263
5,ACGCCGTA,-0.071
6,AACATAGC,-0.103
7,CACATCCA,-0.0244
8,GCATAGGC,-0.103
9,AGGGGTAT,0.0212
10,CTATAATA,-0.00072
11,CAAGCATA,-0.0242
12,GTCGCGGA,-0.0155
13,ACGCATGC,0.0674
14,CGATAGCG,0.138
15,CCAGCGGA,-0.178
16,ACTAAATA,0.214
17,AAGGCTTG,0.0185
18,CAACGTAC,-0.0196
19,CCCTCTTA,-0.121
20,GTCGGTTA,0.114
21,CGGGCGAA,-0.0291
22,GGGCGAAC,0.0237
23,CACCGGAC,-0.0611
24,ACCGTCGT,-0.0196
25,CATCTTCC,0.16

row,Sequence,PBM E-score
1,ACATTGGC,-0.01
2,CGCCAGGA,-0.00871
3,AGCGACGG,-0.0105
4,ACGAGCAG,-0.00712
5,AAATCATA,0.201
6,CTGGGCTA,-0.125
7,CTATTTCA,0.233
8,CGCGCTCA,-0.0477
9,ATACGACC,-0.0988
10,AAGCGAAC,-0.202
11,ACACACTA,-0.0214
12,GACGGGAC,-0.179
13,GAATCCAA,0.0666
14,AAGGAAAC,-0.0908
15,ACCCAGTG,-0.0603
16,AATGCATT,0.11
17,ATCCAACG,-0.153
18,AACCATGA,0.165
19,CAGGTTAC,0.0155
20,CAGGATGG,-0.128
21,TAGCGATA,0.0964
22,AGGCGAAA,0.00301
23,CGGAGAGA,0.0507
24,GAGTAACA,0.101
25,CATAAATC,0.217

row,Sequence,PBM E-score
1,GATTTGGA,-0.072
2,GGGAGGGA,0.252
3,ATTATGCA,0.104
4,AAAGCATG,0.157
5,CCGGGAAA,0.0597
6,AAAATATT,0.266
7,GCTCTCCC,-0.0908
8,CGATTTAA,0.1
9,CATTAAAC,0.191
10,CTGTAACC,0.183
11,CAGGGATG,-0.185
12,AGTGGACC,-0.271
13,AATGGGGC,-0.0469
14,ATGTCCGA,-0.0197
15,GACCAACC,-0.234
16,AAAGCAGA,0.102
17,CAAGAGGA,0.00931
18,ACATACCC,0.053
19,GCAAAGGA,0.0239
20,ATCAACTA,0.141
21,ATATTCCC,0.146
22,GAATTGCC,-0.0798
23,TTGTGAAA,0.342
24,ACATGATC,0.145
25,AAGGTTTA,0.0453

row,Sequence,PBM E-score
1,CGCCAGCG,-0.184
2,GCATTCCC,-0.216
3,TACCTCAA,0.108
4,ACGGAAGC,-0.0171
5,CACCCTGC,-0.0282
6,AAGGGTCA,-0.185
7,ATCTTCTA,0.168
8,ATGAGTTG,0.14
9,GGGAGCTA,-0.166
10,CGTACGCC,-0.074
11,ATAAGGCA,-0.0946
12,CTCGTGGA,-0.121
13,GAGCGTGA,-0.0254
14,AAGGATCA,-0.147
15,ATGAAGAC,0.0538
16,AACTTTAA,0.279
17,TAGCTGGA,-0.0515
18,GAATGTCC,-0.147
19,ATGCGTGC,-0.173
20,GAAAGCCA,-0.0412
21,CTGTCACA,0.147
22,AAAAATTA,0.326
23,TGCGATAA,0.0796
24,CGTACACA,-0.111
25,ATGTCACC,-0.0256

row,Sequence,PBM E-score
1,ACGATACC,0.118
2,CGTGTCTC,-0.0253
3,AAGCAGAT,0.0182
4,CGTTGCTC,0.0329
5,ATCCCGCG,0.204
6,GTTGTAGA,0.0182
7,TGCAAACA,-0.0373
8,ACTAGGCG,0.174
9,CGAATCGA,0.196
10,CGAAAAGA,0.242
11,AAATCGCC,0.018
12,CAATCAAG,-0.0923
13,CACAGTTA,0.173
14,ATGTAGAA,0.141
15,AGTATTAC,0.0263
16,ACTCGGGA,0.00069
17,CGATCCGC,-0.0771
18,AACGTGGC,0.0443
19,CAATCTAG,0.00433
20,CAACCGGA,0.0644
21,AAGCCCAA,-0.0155
22,CACAGAGA,0.0895
23,GCGTGACC,-0.0478
24,GAATATTC,-0.00905
25,CGGTAAAA,0.198

row,Sequence,PBM E-score
1,GACCTGCC,-0.0264
2,CACTAACG,-0.0575
3,CCTTCCTC,-0.155
4,CACATGTG,-0.137
5,CATCAACA,0.111
6,AGACTGGA,-0.0847
7,AATGTCCG,-0.116
8,TGAGCTCA,0.0371
9,CACAAGGC,-0.17
10,CAGGAGTC,-0.0302
11,CCTGGCTA,-0.217
12,AGAAATGG,0.058
13,CCCTCAGG,-0.135
14,ATGATGTC,0.0463
15,ACTGAAAT,0.181
16,AGTTACTG,-0.129
17,CACCTAAA,0.0511
18,AAGCAGTA,0.0143
19,CATGGTCA,0.049
20,GCGTAGCC,-0.161
21,ATCGAGAA,0.16
22,AGGAGGTG,-0.216
